Measured values as given in PubChem BioAssay AID1986 (Sanford-Burnham Center for Chemical Genomics, 2009).
This is one part of the list. Shown are side measurements of this screen, not its main read-out; they come without a call.

Experiment: inhibitors of HIV fusion peptide binding, primary screen, biochemical, uHTS, fluorescence dequenching (AID 1986)
Conditions: cell-free peptide binding, 30 min, measured here: repeat confirmation average inhibition, at 18.6 µM, stronger effect = higher value

SMILES	inhibition
CS(=O)(=O)C1=NSC2=NC(=O)/C(=C\c3ccc(OC(=O)c4ccco4)c(Br)c3)C(=N)N21	80%
CC(C)(C)c1ccc2c(c1)OC(C(=O)N/N=C\c1ccc(-c3cccc(C(=O)O)c3)o1)CO2 (configuration not stated)	73.5%
CCOc1cc(/C=C2/C(=N)N3C(=NC2=O)SN=C3S(=O)(=O)CC)ccc1OC(=O)c1ccco1	56.2%
CCCOc1ccc(C2C(C(=O)c3cc4ccccc4o3)=C(O)C(=O)N2c2cc(C)on2)cc1 (configuration not stated)	59%
COc1ccc(C(=O)Nc2ccc(/C(C)=N/NC(=O)c3ccncc3)cc2)cc1	76.9%
COc1cc(/C=C2\C(=N)N3N=C(S(C)(=O)=O)SC3=NC2=O)ccc1OCCOc1ccccc1C	75.2%
COc1cc(/C=C2\C(=N)N3N=C(S(C)(=O)=O)SC3=NC2=O)ccc1OS(=O)(=O)c1ccccc1	67.1%
Cc1c(CC(=O)O)c(=O)oc2c(C)c3occ(-c4ccc(Br)cc4)c3cc12	57.8%
CCCCCCc1c(C)c2ccc(OCC(=O)N[C@@H](Cc3ccccc3)C(=O)O)cc2oc1=O	52.6%
CC(c1ccccc1)N1C(=O)c2ccc(C(=O)Nc3ccccc3C(=O)O)cc2C1=O (configuration not stated)	50.5%
Cc1cccc(S(=O)(=O)Nc2nc3ccccc3nc2Nc2cccc(C(=O)O)c2)c1	50.3%
CC(c1ccccc1)N1C(=O)c2ccc(C(=O)Nc3ccc(Br)cc3C(=O)O)cc2C1=O (configuration not stated)	77.7%
Cc1ccc(S(=O)(=O)Oc2ccc(/C=C3/C(=N)N4C(=NC3=O)SN=C4S(C)(=O)=O)cc2)cc1	86.2%
O=C(Nc1ccc(C(=O)O)cc1)/C(=C\C=C\c1ccccc1)NC(=O)c1cccc(Br)c1	61%
CCOc1cc(/C=C2\C(=O)N(c3cccc(C(=O)O)c3)N=C2C(F)(F)F)ccc1OCC(=O)Nc1ccccc1OC	88.3%
Cc1ccc(S(=O)(=O)Oc2ccc(/C=C3\C(=N)N4N=C(S(C)(=O)=O)SC4=NC3=O)cc2)cc1	69%
CC(C)(C)CC(C)(C)c1ccc(OCC(=O)N/N=C/c2ccc(S(=O)(=O)O)o2)cc1	56.3%
CCc1nnc(NS(=O)(=O)c2ccc(N/C=C(\C=O)c3nc4cc(Cl)ccc4o3)cc2)s1	54.5%
O=C(O)c1cc(NC(=O)c2ccc(Br)cc2)cc(NC(=O)c2ccc(Br)cc2)c1	53.9%
CCOC(=O)C1=C(C)N=c2s/c(=C\c3ccc(OCC(=O)O)c(OC)c3)c(=O)n2C1c1ccc(OC)cc1 (configuration not stated)	60%
COc1cc(/C=C2/C(=N)N3C(=NC2=O)SN=C3S(C)(=O)=O)ccc1OS(=O)(=O)c1ccccc1	65.8%

SMILES	inhibition
O=C(O)Cn1cc(/C=c2/sc3nc4ccccc4n3c2=O)c2ccccc21	60.7%
Cc1ccccc1N/N=C/c1sc(=O)n(Cc2cccc(C(=O)O)c2)c1Cl	69.7%
Cc1cc(C)cc(-n2cccc2/C=C2/C(=N)N3C(=NC2=O)SN=C3S(C)(=O)=O)c1	70.3%
COc1cc(/C=C2/C(=O)NN(c3ccc(Cl)cc3)C2=O)cc(Br)c1O	52%
Cc1cc(N2C(=O)C(O)=C(C(=O)c3cc4ccccc4o3)C2c2cccc(Br)c2)no1 (configuration not stated)	70.1%
COC(=O)c1sc(-c2ccc(C(C)(C)C)cc2)cc1NC(=O)COCC(=O)O	52.9%
COc1cc(/C=N/Nc2ccc(Cl)c(C(=O)O)c2)ccc1OC(=O)c1ccc(F)cc1	54.1%
CCOc1cc(/C=C2/C(=N)N3C(=NC2=O)SN=C3S(C)(=O)=O)ccc1OS(=O)(=O)c1ccccc1	81.7%
COc1cc(/C=C2\C(=N)N3N=C(S(C)(=O)=O)SC3=NC2=O)ccc1OC(=O)c1cccs1	83%
Cc1cc(N2C(=O)C(O)=C(C(=O)c3cc4ccccc4o3)C2c2ccc(Cl)cc2)no1 (configuration not stated)	64.6%
O=C(Nc1ccc(-c2nc3ccccc3[nH]2)cc1)c1ccccc1NS(=O)(=O)c1ccc(F)cc1	58.6%
COc1cc(NS(=O)(=O)c2ccc(NC(=S)NC(=O)c3sc4ccccc4c3Cl)cc2)nc(OC)n1	70.3%
O=C(COc1ccc(Cl)cc1)Nc1cc(NC(=O)COc2ccc(Cl)cc2)cc(C(=O)O)c1	59.3%
CCOC(=O)c1sc(N2C(=O)C(O)=C(C(=O)c3ccc(C)o3)C2c2cccc([N+](=O)[O-])c2)nc1C (configuration not stated)	54.5%
CCS(=O)(=O)C1=NN2C(=N)/C(=C\c3ccc(OS(=O)(=O)c4ccccc4)c(OC)c3)C(=O)N=C2S1	67.5%
O=C(NN1C(=O)/C(=C/c2ccc(O)cc2)SC1=S)c1ccccc1O	51.8%
COc1cc(/C=C2\C(=N)N3N=C(S(C)(=O)=O)SC3=NC2=O)cc(OC)c1OCCOc1ccc(C)cc1	86.3%
COc1cccc(C2C3=C(N=c4s/c(=C\c5ccc(OCC(=O)O)cc5)c(=O)n42)c2ccccc2CC3)c1 (configuration not stated)	70.3%
O=C(O)COc1ccccc1/C=N/NC(=O)CSc1nnc(SCc2cccc3ccccc23)s1	59.2%
O=C1NN(c2ccc(F)c(Cl)c2)C(=O)/C1=C\c1cccc(OC(=O)c2cccs2)c1	87.3%
COc1cc(/C=C2\C(=N)N3N=C(S(C)(=O)=O)SC3=NC2=O)cc(OC)c1OCCOc1cccc(C)c1	86%
